Measured values: a collection of fitness landscapes (doi:10.1126/science.1257360)
The list shows a part of the results.

B1: PhoQ; a variant is named by its letters at X, in order, P23837 (parent)
chain: MKKLLRLFFPLSLRVRFLLATAAVVLVLSLAYGMVALIGYSVSFDKTTFRLLRGESNLFYTLAKWENNKLHVELPENIDKQSPTMTLIYDENGQLLWAQRDVPWLMKMIQPDWLKSNGFHEIEADVNDTSLLLSGDHSIQQQLQEVREDDDDAEMTHSVAVNVYPATSRMPKLTIVVVDTIPVELKSSYMVWSWFIYVLSANLLLVIPLLWVAAWWSLRPIEALAKEVRELEEHNRELLNPATTRELTSLVRNLNRLLKSERERYDKYRTTLTDLTHSLKTPLXXLQXXLRSLRSEKMSVSDAEPVMLEQISRISQQIGYYLHRASMRGGTLLSRELHPVAPLLDNLTSALNKVYQRKGVNISLDISPEISFVGEQNDFVEVMGNVLDNACKYCLEFVEISARQTDEHLYIVVEDDGPGIPLSKREVIFDRGQRVDTLRPGQGVGLAVAREITEQYEGKIVAGESMLGGARMEVIFGRQHSAPKDE

Variants of: B1
Experiment: enrichment ratio after two sorts for PhoP signalling (ratio (wild type AVST 3.29)); higher = more functional
Details: with PhoP (E. coli)

RTIT and VGVH cannot be ordered by enrichment ratio: ≤ 0.25 for the first, ≤ 0.25 for the second.

FLII and RPGY cannot be ordered by enrichment ratio: ≤ 0.25 for the first, ≤ 0.25 for the second.

GQKA and WFPL cannot be ordered by enrichment ratio: ≤ 0.25 for the first, ≤ 0.25 for the second.

LTRM and ETCC cannot be ordered by enrichment ratio: ≤ 0.25 for the first, ≤ 0.25 for the second.

DNRY and SWTS cannot be ordered by enrichment ratio: ≤ 0.25 for the first, ≤ 0.25 for the second.

GEPF and NNDC cannot be ordered by enrichment ratio: ≤ 0.25 for the first, ≤ 0.25 for the second.

NVVI and HVPI cannot be ordered by enrichment ratio: ≤ 0.25 for the first, ≤ 0.25 for the second.

First: VCDK
Second: FSCL
The enrichment ratio of the first is lower: ≤ 0.25 for the first, 8.2 for the second.

QEMF and LIAN cannot be ordered by enrichment ratio: ≤ 0.25 for the first, ≤ 0.25 for the second.

MKHF and HPNT cannot be ordered by enrichment ratio: ≤ 0.25 for the first, ≤ 0.25 for the second.

ELTR and RRSI cannot be ordered by enrichment ratio: ≤ 0.25 for the first, ≤ 0.25 for the second.

EVPP and WEWD cannot be ordered by enrichment ratio: ≤ 0.25 for the first, ≤ 0.25 for the second.

DPKM and MPRE cannot be ordered by enrichment ratio: ≤ 0.25 for the first, ≤ 0.25 for the second.

WKWI and FNKQ cannot be ordered by enrichment ratio: ≤ 0.25 for the first, ≤ 0.25 for the second.

FDMI and KDLL cannot be ordered by enrichment ratio: ≤ 0.25 for the first, ≤ 0.25 for the second.

MVHY and SCDQ cannot be ordered by enrichment ratio: ≤ 0.25 for the first, ≤ 0.25 for the second.

IGYR and YNEL cannot be ordered by enrichment ratio: ≤ 0.25 for the first, ≤ 0.25 for the second.

RCMC and ETAC cannot be ordered by enrichment ratio: ≤ 0.25 for the first, ≤ 0.25 for the second.

VMAW and FNCC cannot be ordered by enrichment ratio: ≤ 0.25 for the first, ≤ 0.25 for the second.

YIKK and DRGW cannot be ordered by enrichment ratio: ≤ 0.25 for the first, ≤ 0.25 for the second.

LASQ and YEKK cannot be ordered by enrichment ratio: ≤ 0.25 for the first, ≤ 0.25 for the second.

WHLM and TCFH cannot be ordered by enrichment ratio: ≤ 0.25 for the first, ≤ 0.25 for the second.

First: GMCH
Second: FCKG
The enrichment ratio of the first is higher: 16.1 for the first, ≤ 0.25 for the second.

MRKL and MEME cannot be ordered by enrichment ratio: ≤ 0.25 for the first, ≤ 0.25 for the second.

VIQV and SHPS cannot be ordered by enrichment ratio: ≤ 0.25 for the first, ≤ 0.25 for the second.

Compared with FERA, SRMT is higher in enrichment ratio: ≤ 0.25 for the first, 0.372 for the second.

HWKI and QTGR cannot be ordered by enrichment ratio: ≤ 0.25 for the first, ≤ 0.25 for the second.

MYFY and LSCW cannot be ordered by enrichment ratio: ≤ 0.25 for the first, ≤ 0.25 for the second.

VACI and QLPV cannot be ordered by enrichment ratio: ≤ 0.25 for the first, ≤ 0.25 for the second.

FGTM and ARMN cannot be ordered by enrichment ratio: ≤ 0.25 for the first, ≤ 0.25 for the second.

Compared with TTHM, FSFT is lower in enrichment ratio: 9.81 for the first, ≤ 0.25 for the second.

AAQG and PEIA cannot be ordered by enrichment ratio: ≤ 0.25 for the first, ≤ 0.25 for the second.

YRNY and FSTN cannot be ordered by enrichment ratio: ≤ 0.25 for the first, ≤ 0.25 for the second.

HYER and HGNK cannot be ordered by enrichment ratio: ≤ 0.25 for the first, ≤ 0.25 for the second.

YYNC and ARFL cannot be ordered by enrichment ratio: ≤ 0.25 for the first, ≤ 0.25 for the second.

IMWI and EAFF cannot be ordered by enrichment ratio: ≤ 0.25 for the first, ≤ 0.25 for the second.

AQAE and EQFH cannot be ordered by enrichment ratio: ≤ 0.25 for the first, ≤ 0.25 for the second.

VKRY and LLWS cannot be ordered by enrichment ratio: ≤ 0.25 for the first, ≤ 0.25 for the second.

Compared with KERA, RDKA is lower in enrichment ratio: 3.14 for the first, ≤ 0.25 for the second.

WDYR and MCNP cannot be ordered by enrichment ratio: ≤ 0.25 for the first, ≤ 0.25 for the second.

RHEK and GENY cannot be ordered by enrichment ratio: ≤ 0.25 for the first, ≤ 0.25 for the second.

SFYC and RSFP cannot be ordered by enrichment ratio: ≤ 0.25 for the first, ≤ 0.25 for the second.

Going from TIGV to KGPC, the enrichment ratio falls from 9.86 to ≤ 0.25.

ERFG and PMYS cannot be ordered by enrichment ratio: ≤ 0.25 for the first, ≤ 0.25 for the second.

VCIK and KYQP cannot be ordered by enrichment ratio: ≤ 0.25 for the first, ≤ 0.25 for the second.

KRKY and VFQG cannot be ordered by enrichment ratio: ≤ 0.25 for the first, ≤ 0.25 for the second.

LQAY and STDL cannot be ordered by enrichment ratio: ≤ 0.25 for the first, ≤ 0.25 for the second.

GMWR and HLHF cannot be ordered by enrichment ratio: ≤ 0.25 for the first, ≤ 0.25 for the second.

EGYY and AMHC cannot be ordered by enrichment ratio: ≤ 0.25 for the first, ≤ 0.25 for the second.

GTPV and LNVM cannot be ordered by enrichment ratio: ≤ 0.25 for the first, ≤ 0.25 for the second.

LPKI and YQWF cannot be ordered by enrichment ratio: ≤ 0.25 for the first, ≤ 0.25 for the second.

PVGW and RWKP cannot be ordered by enrichment ratio: ≤ 0.25 for the first, ≤ 0.25 for the second.

NMYS and WNKV cannot be ordered by enrichment ratio: ≤ 0.25 for the first, ≤ 0.25 for the second.

ACDC and GQRV cannot be ordered by enrichment ratio: ≤ 0.25 for the first, ≤ 0.25 for the second.

FFED and FSDC cannot be ordered by enrichment ratio: ≤ 0.25 for the first, ≤ 0.25 for the second.

MVMH and KSFI cannot be ordered by enrichment ratio: ≤ 0.25 for the first, ≤ 0.25 for the second.

Going from YNLA to HGGE, the enrichment ratio falls from 0.304 to ≤ 0.25.

VENH and QLMQ cannot be ordered by enrichment ratio: ≤ 0.25 for the first, ≤ 0.25 for the second.

EYHH and DMRV cannot be ordered by enrichment ratio: ≤ 0.25 for the first, ≤ 0.25 for the second.

Going from AIMG to IVGH, the enrichment ratio falls from 6.65 to ≤ 0.25.

YGMY and LLNF cannot be ordered by enrichment ratio: ≤ 0.25 for the first, ≤ 0.25 for the second.

Going from GPAR to WECI, the enrichment ratio rises from ≤ 0.25 to 0.414.

FCFT and PSGY cannot be ordered by enrichment ratio: ≤ 0.25 for the first, ≤ 0.25 for the second.

Going from YECC to IPDD, the enrichment ratio falls from 56.2 to ≤ 0.25.

LPEC and INWY cannot be ordered by enrichment ratio: ≤ 0.25 for the first, ≤ 0.25 for the second.

PLNH and HRNR cannot be ordered by enrichment ratio: ≤ 0.25 for the first, ≤ 0.25 for the second.

NKVH and KQPP cannot be ordered by enrichment ratio: ≤ 0.25 for the first, ≤ 0.25 for the second.

IIAF and SYIF cannot be ordered by enrichment ratio: ≤ 0.25 for the first, ≤ 0.25 for the second.

HPWH and GDGV cannot be ordered by enrichment ratio: ≤ 0.25 for the first, ≤ 0.25 for the second.

PEHR and FNRP cannot be ordered by enrichment ratio: ≤ 0.25 for the first, ≤ 0.25 for the second.

LPNQ and ACNP cannot be ordered by enrichment ratio: ≤ 0.25 for the first, ≤ 0.25 for the second.

First: KMLY
Second: VFHP
The enrichment ratio of the first is higher: 0.301 for the first, ≤ 0.25 for the second.

VIVP and QTQL cannot be ordered by enrichment ratio: ≤ 0.25 for the first, ≤ 0.25 for the second.

First: PWFA
Second: SHSY
The enrichment ratio of the first is lower: ≤ 0.25 for the first, 4.52 for the second.

LHHR and VPVT cannot be ordered by enrichment ratio: ≤ 0.25 for the first, ≤ 0.25 for the second.

EMTC and GINQ cannot be ordered by enrichment ratio: ≤ 0.25 for the first, ≤ 0.25 for the second.

For PSDH, the enrichment ratio was ≤ 0.25.
